PubChem BioAssay (NCI)
Where “and” joins values, the source holds several entries; their conditions need not be identical. Equal entries are not always repeated.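 96-well plates; 48 h exposure; 5 concentrations. Endpoints by linear interpolation between flanking doses. Not reached: highest tested concentration assigned. GI50 = concentration required for 50% inhibition of growth. TGI denotes the concentration required for complete inhibition of growth.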

Each compound was assayed on NCI-H322M lung (assay: NCI-60 cell line screen, 48 h).

| Structure (SMILES) | TGI | GI50 |
| --- | --- | --- |
| Cc1cccc2c(N)c3cccc(C(=O)NCCNCCN)c3nc12 | 44.7 µM |  |
| CCCCN(CCCC)CC(C(=O)Nc1ccc([N+](=O)[O-])cc1[N+](=O)[O-])/C(C)=N\NC(=O)c1ccncc1 (stereo unspecified) | > 100 µM |  |
| Cc1cc(N(CCC#N)CCC#N)ccc1/C(Sc1ccccc1)=C(\NC(=O)/C=C/c1ccccc1)C(=O)Sc1ccccc1 | 25.9 µM |  |
| Cc1c(N)c(C#N)c2n(C)c3ncccc3n2c1=O | > 100 µM |  |
| O=c1c2ccccc2nc(-c2ccccc2)n1/N=C/c1ccccc1[N+](=O)[O-] | > 100 µM |  |
| CC1=C(C)C2(C#N)C(=O)N3C(=NC(c4ccco4)NC3c3ccco3)C2(C#N)C(c2ccco2)N1 (stereo unspecified) | > 100 µM |  |
| C/C=C(/C)C(=O)OC1C=C(CO)C(=O)C(OC(=O)C2(C)OC2C)C1C(C)C (stereo unspecified) | 3.61 µM | 1.88 µM |
| O=c1nc(N2CCCCC2)sc2[nH]c3ccccc3c12 | > 100 µM |  |
| COC(=O)C1=C(C)N(NC(N)=O)C2(N)N(NC(N)=O)C(C)=C(C(=O)OC)C12C#N (stereo unspecified) | > 100 µM |  |
| CCCN(CCCC(NC(C)=O)C(=O)NCc1ccccc1)C(=O)N(C)N=O (stereo unspecified) | > 100 µM |  |
| [pH]1p2[pH]p3p1p3[pH]2.c1cc[c]([Ge]([c]2ccccc2)[c]2ccccc2)cc1.c1cc[c]([Ge]([c]2ccccc2)[c]2ccccc2)cc1.c1cc[c]([Ge]([c]2ccccc2)[c]2ccccc2)cc1 | 31.3 µM | 16.1 µM |
| OC(Cc1cnnc2ccccc12)C(Cl)(Cl)Cl (stereo unspecified) | > 10 µM |  |
| COC(=O)COc1ccccc1/C=C1/N=C(c2ccccc2)N(c2c(C)n(C)n(-c3ccccc3)c2=O)C1=O | > 100 µM | > 100 µM |
| Fc1ccc(C2CC(c3cccc(Nc4ccncc4)c3)=NN2c2ccccc2)cc1 (stereo unspecified) | 3.77 µM | 1.74 µM |
| NNC(=O)N/N=C(/CC1(O)C(=O)Nc2ccc(Br)cc21)c1ccccc1 (stereo unspecified) | > 100 µM |  |
| C/C(=C\CNc1ncnc2c1ncn2C1CCCCO1)COP(=O)(O)O (stereo unspecified) | > 100 µM |  |
| COc1ccc(/C=C/c2cc(O)cc(OC3OC(CO)C(O)C(O)C3O)c2)cc1O (stereo unspecified) | > 100 µM |  |
| CC1(C)CCC2(C(=O)O)C(O)CC3(C)C(=CCC4C5(C)CCC(OC6OCC(O)C(O)C6OC6OCC(O)C(O)C6OC6OCC(O)C(OC7OC(CO)C(O)C(O)C7O)C6O)C(C)(C)C5CCC43C)C2C1 (stereo unspecified) | > 100 µM |  |
| CCCCCCCCCCCCCCCC(=O)OCC1OC(OCCCC)[C@H](O[C@@H]2OC(C)C(OC(=O)CCC)C(O)C2O)C(O)C1O (stereo partly specified) | 29.4 µM | 15.5 µM |
| NC(N)=NCCCC(Nc1c2ccccc2nc2ccccc12)C(=O)O (stereo unspecified) | > 100 µM |  |
| COC12OCCN(C)C1=CC(=O)C1N=NCC12 (stereo unspecified) | > 100 µM |  |
| COc1ccc(CCn2ccc(C)n2)c(OC)c1 | > 100 µM |  |
| Cc1cc(NS(=O)(=O)c2ccc(NC(=O)c3cccc4c(Nc5ccc(S(=O)(=O)Nc6cc(C)on6)cc5)c5ccc(Cl)cc5nc34)cc2)no1 | > 100 µM |  |
| CC(=O)NC(CCc1ccc(Cl)c(Cl)c1)c1cccc(O)c(=O)c1 (stereo unspecified) | 11.7 µM | 0.417 µM |

| Structure (SMILES) | TGI | GI50 |
| --- | --- | --- |
| CC1CN1c1c(C(=O)/C=C/c2ccc(F)cc2)c(-c2ccccc2)nn(C)c1=O (stereo unspecified) | 32.7 µM |  |
| Cc1cc2c(C(C)C)c(O)c(O)c(/C=N/O)c2c(O)c1-c1c(C)cc2c(C(C)C)c(O)c(O)c(/C=N/O)c2c1O | 16.1 µM | 3.59 µM |
| C[n+]1c(-c2ccc(/C=N\Nc3ccnc(N/N=C/c4ccc(-c5cn6ccsc6[n+]5C)cc4)n3)cc2)cn2ccsc21 | > 100 µM |  |
| COc1cc(O)c2c(c1C)C(C)(O)c1c(C)coc1C2=O (stereo unspecified) | > 100 µM |  |
| Nc1nc2c(ncn2C2OC(CO)C(O)C2O)c(=O)o1 (stereo unspecified) | > 100 µM |  |
| COC1(OC)CCC2(C)OC(c3ccccc3)C1O2 (stereo unspecified) | > 100 µM |  |
| N#Cc1ncc(-c2ccc(C(F)(F)F)cc2)c(NC2CCCCCC2)n1 | > 100 µM | > 100 µM |
| Cc1cc2c3c(nc4ccccc42)C(=O)c2cccnc2-c3n1 | 1.1 µM | 0.165 µM |
| C=C(Cl)[C@](Cl)(CBr)CC[C@@H](Br)C(C)(C)Cl | 3.42 µM |  |
| O=C(CCl)N1CCN(c2ccccc2)CC1 | 35.7 µM |  |
| CN1CCOC1(C)c1ccccc1 (stereo unspecified) | > 100 µM |  |
| CSc1ncc2c(C#N)c3n(C)c4ccccc4n3c(=O)c2n1 | > 100 µM |  |
| CCN(CC)CCN1C(=O)c2c(c3c4cccc(Cl)c4n(C4OC(CO)C(OC)C(O)C4O)c3c3[nH]c4c(Cl)cccc4c23)C1=O (stereo unspecified) |  | 0.000217 µM and < 0.0292 µM and < 0.01 µM |
| CN1C(=O)C(O)CC1c1ccccc1F (stereo unspecified) | > 100 µM |  |
| CC(C)N(CCNc1nc(C(Cl)(Cl)Cl)nc2cc(Cl)ccc12)C(C)C | 3.45 µM | 1.48 µM |
| O=C(Cn1c2ccc(Br)cc2c2nc3ccccc3nc21)NNC(=O)NC1CCCCC1 | > 100 µM |  |
| CC(C)(C)OC(=O)NC(Cc1ccc(OC(C)(C)C)cc1)C(=O)N[C@H]1CC[C@H](C(=O)O)C1 (stereo partly specified) | > 100 µM |  |
| CC(=O)Nc1ccc2cc(C#N)c(=O)[nH]c2n1 | > 100 µM |  |
| Cc1ccc2c(-c3ccnc(Nc4cccc(C(F)(F)F)c4)n3)c(-c3ccccc3)nn2n1 | > 25 µM | 11.3 µM |
| Cc1c(Br)c(Br)c2c3c1nc(N1CCNCC1)n3CCC2 | 3.02 µM | 1.65 µM |
| COC(=O)C1=C(N)C2=C(N)Oc3ccccc3C2CC1=C(C#N)C#N (stereo unspecified) | 91.2 µM |  |
| CC1=CP(=O)(OC(C)C)C=C(C)C1=C(Cl)Cl (stereo unspecified) | > 100 µM |  |
| CCN(CC)CCC(=O)c1ccc(Cl)c(Cl)c1 | > 100 µM |  |
| CN1CCC(=C(c2ccc(Cl)cc2)c2ccccn2)CC1 | > 100 µM | > 100 µM |

| Structure (SMILES) | TGI | GI50 |
| --- | --- | --- |
| C#CC(O)/C=C/C(O)CCCC(O)CC#CC(O)C#CCCCCC(O)/C=C/CCCCCC(=O)CCCCCCCCCCCCCC(O)C(O)C#CC(=O)O (stereo unspecified) | > 25 µM |  |
| Cc1c(C(=O)/C=C/c2ccc([N+](=O)[O-])cc2)[n+](=O)c2ccccc2n1[O-] | > 100 µM |  |
| C=CCc1cc(O)ccc1O | > 100 µM | 81.6 µM |
| O=S(O)CCCCCSSc1ccc(Cl)cc1 | > 100 µM |  |
| CCN1C[C@@H](C)n2c(c(O)c3c(=O)n(Cc4ccc(F)c(Cl)c4)nc(C(=O)NC)c32)C1=O | > 100 µM | 2.97 µM |
| O=C1CC(=O)NC(=NN2C(=O)CSC2c2ccc(Cl)cc2)N1 (stereo unspecified) | > 100 µM |  |
| CC[C@@]1(O)C(=O)OCc2c1cc1n(c2=O)Cc2cc3cc(O)ccc3nc2-1 | 11.7 µM and 12.9 µM | 0.129 µM |
| OCC1NC(CO)C(O)C1O (stereo unspecified) | > 100 µM |  |
| O=[N+]([O-])c1ccc(C2=NOC(c3ccccc3)N2C23CC4CC(CC(C4)C2)C3)cc1 (stereo unspecified) | > 100 µM |  |
| c1ccc(-c2sc(-c3ccccc3)c3c2C(c2ccccc2)c2c(-c4ccccc4)sc(-c4ccccc4)c2C3c2ccccc2)cc1 (stereo unspecified) | > 100 µM |  |
| CCOc1cc(CC[N+](C)(C)C)c2c(ccc3ccc(OC)c(OC)c32)c1OC | > 100 µM |  |
| O=C(CNc1ccc([N+](=O)[O-])cc1)Nn1c(-c2ccccc2)nc2ccccc2c1=O | 29.2 µM |  |
| C#CCC(O)c1ccc(OC)c(OCc2ccccc2)c1 (stereo unspecified) | > 100 µM |  |
| CS(=O)(=O)ON1C(=O)c2ccc(N)cc2C1=O | > 100 µM |  |
| Cn1cc(Nc2nccc(-c3ccc4c(c3)CN(C3COC3)CC[C@H]4NC(=O)c3cn(C(C)(C)C)nn3)n2)cn1 | > 100 µM | 65.3 µM |
| CCN(CC)CCOc1ccc2c(-c3ccccc3)c(-c3ccc(OC)cc3)c(=O)oc2c1 | 25.9 µM | 12.9 µM |
| COC(=O)c1cc(C#N)[nH]c1-c1ccc(Br)s1 | 30.7 µM |  |
| COc1ccc(N=Nc2c(-c3ccccc3)nn(C(=O)CC(=O)Nc3ccc(OC)cc3)c2-c2ccccc2)cc1 | > 100 µM |  |
| C#CCNCC(=O)O | > 100 µM |  |
| CC(=O)OC[C@@]1(C)[C@@H]2[C@@H]3[C@@]4(CO[C@]3(C)C(=O)[C@@]3(OC(C)=O)C[C@H](C)[C@H](OC(C)=O)[C@@H]3[C@H]4OC(C)=O)[C@H](OC(=O)c3ccccc3)C[C@@H]21 | > 100 µM |  |
| Cc1cc(NS(=O)(=O)c2ccc(-c3cnc(C4CC4)o3)cc2)ccc1Cl | 19.6 µM | 0.639 µM |
| Cc1ccc(/C=C(/C#N)n2nnc3cccc(F)c32)cc1 | 9.86 µM | 1.53 µM |
| O=[N+]([O-])c1ccc(C2Nn3c(nnc3-c3cccc([N+](=O)[O-])c3)S2)cc1 (stereo unspecified) | > 100 µM |  |
| Cc1cc(C(O)CCCc2ccccc2)cc(C)c1O (stereo unspecified) | > 100 µM |  |

| Structure (SMILES) | TGI | GI50 |
| --- | --- | --- |
| NC(N)=N/N=C/c1c(-c2ccc([N+](=O)[O-])cc2)nc2sc(Cl)cn12 | 1.93 µM |  |
| COc1cc2c3c(n(CCCNCCCCN)c(=O)c2cc1OC)-c1cc2c(cc1C3=O)OCO2 | 19.5 µM | 5.22 µM |
| Cc1ncnc2c1ccn2[C@@H]1C[C@H](Oc2cc(C(F)F)c(F)c3c2CNCC3)[C@@H](O)[C@H]1O | > 100 µM | > 100 µM |
| CN1C(=O)[C@@H](CC2CCCC2)N(C2CCCC2)c2nc(Nc3cc(Cl)c(O)c(Cl)c3)ncc21 | > 100 µM | 28.5 µM |
| O=C(N[C@H](CO)[C@H](O)c1ccc([N+](=O)[O-])cc1)C(Cl)Cl | > 100 µM |  |
| Nc1ncc(-c2ccc3ncnc(N4CCc5cc(F)c(Cl)cc54)c3c2)cc1C=O | > 100 µM | 0.775 µM |
| O=Nn1c2ccccc2c2ccccc21 | > 100 µM |  |
| CCNCCS(=O)(=O)NC[C@@]1(c2ccccc2)SC(NC(=O)C(C)(C)C)=NN1C(=O)C(C)(C)C | > 100 µM | < 0.01 µM |
| CCCCNC(=O)CC1=C(C)/C(=C/c2[nH]c(-c3ccc[nH]3)cc2OC)N=C1C | 16.7 µM | 4.39 µM |
| Oc1ccc(/C=N/NC(=S)Nc2ccccc2)nc1 | > 100 µM | 0.742 µM |
| O=S1(=O)C[C@H](NCc2ccccc2)[C@H](NCc2ccccc2)C1 | > 100 µM |  |
| COc1ccc(-c2cc(-c3ccc(Cl)cc3)nc(SCCCC(=O)NO)n2)cc1OC | 7.33 µM | 0.842 µM |
| CCN(CC)Cc1cc(Nc2ccnc3ccc(OC)cc23)ccc1O | 13.7 µM | 3.26 µM |
| O=C(CCl)N1CCN(c2ccccn2)CC1 | 37.4 µM |  |
| COC(=O)C(Cc1c(-c2[nH]c3ccccc3c2CC(NC(C)=O)C(=O)OC)[nH]c2ccccc12)NC(C)=O (stereo unspecified) | > 100 µM |  |
| CCOC(=O)C(Cc1ccccc1)n1c(O)c(/C=N/c2ncc(Cc3ccc(Cl)cc3Cl)s2)sc1=S (stereo unspecified) | 37.2 µM | 3.38 µM |
| C=C1C(=O)O[C@H]2C(=O)[C@H](C)CCC/C(C)=C/CC[C@@]3(C)O[C@@H]3C[C@@H]12 | 17.7 µM |  |
| COc1ccc(C(=O)C(c2ccc(OC)cc2)C2(O)C(=O)Nc3c(Cl)cc(Cl)cc32)cc1 (stereo unspecified) | 54.8 µM |  |
| COc1ccc(/C=C/C(=O)OC2CC34CCNC35CC(OC5(OC)C2OC)c2ccc(OC)c(O)c24)cc1O (stereo unspecified) | > 100 µM | 32.1 µM and > 100 µM |
| C=C(CN(C)C)C(=O)c1ccccc1 | > 54.7 µM |  |
| Cc1[nH]c(N)nc(=S)c1CCCNc1ccccc1 | > 100 µM |  |
| N=C1C(c2nc3ccccc3c(=O)[nH]2)=C(O)CN1c1cccc(Cl)c1 | 33.3 µM | 3.11 µM |
